Source: the supplement of paper PMC4967469
A lower IC50 marks a more sensitive line; a fit beyond the top or the lowest dose is shown as a bound at that dose. AUC, from the same fit, is the share of area under the viability curve across the 256-fold dose range: 1 means no effect, lower means more sensitive. For some of these results: The top dose, if marked as inferred, is not printed in the source and was worked back from the curve model. For some of these results: Where an entry number is given, a second screen of the drug exists; the two often differ.

Tests used:
Assay in all cases: Viability of human cancer cell lines after 72 h of drug (GDSC screen)
[1] = compound: CC(C)c1ccccc1Cc1cc(C(=O)Nc2ccc(S(=O)(=O)c3ccccc3C(C)(C)C)cc2)c(O)c(O)c1O [TW-37]; settings: top dose 5 µM
Experimental: (§1)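 Human cancer cell lines in 384-well plates, medium with 10% serum, drug for 72 h over a 256-fold dose range (nine 2-fold or five 4-fold steps up to the top dose). Adherent lines were fixed and stained with the nucleic acid dye Syto60, suspension lines read with resazurin; signal relative to control wells, capped at 0 and 100%. One two-parameter sigmoid per drug and line, fitted in a mixed model over all curves with the slope shared within a line.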

[2] = compound: Nc1ccn([C@@H]2O[C@H](CO)[C@@H](O)C2(F)F)c(=O)n1 [Gemcitabine]; settings: top dose 1.024 µM
Experimental: as §1

[3] = compound: O=S(=O)(c1ccccc1)N(CC(F)(F)F)c1ccc(C(O)(C(F)(F)F)C(F)(F)F)cc1 [T0901317]; settings: top dose 10.24 µM; top dose inferred
Experimental: as §1

[4] = compound: Cc1ccc(Nc2cc(-c3cccc(N4C(=O)c5ccccc5C4=O)c3)ncn2)cc1NS(C)(=O)=O [KIN001-270]; settings: top dose 20 µM; top dose inferred
Experimental: as §1

[5] = compound: C/C(O)=C(\C#N)C(=O)Nc1cc(Br)ccc1Br [LFM-A13]; settings: top dose 16 µM; top dose inferred
Experimental: as §1

[6] = compound: CC(O)(CS(=O)(=O)c1ccc(F)cc1)C(=O)Nc1ccc(C#N)c(C(F)(F)F)c1 [Bicalutamide]; settings: top dose inferred
Experimental: as §1

[7] = compound: S=C(NCc1ccc2c(c1)OCO2)N1CCN(c2ncnc3c2oc2ccccc23)CC1 [MP470]; settings: top dose 20 µM; top dose inferred
Experimental: as §1

[8] = compound: CCNC(=O)c1noc(-c2cc(C(C)C)c(O)cc2O)c1-c1ccc(CN2CCOCC2)cc1 [AUY922]; settings: top dose 0.256 µM; top dose inferred
Experimental: as §1

[9] = top dose 1.024 µM, screen: GDSC drug entry 150
[10] = top dose 10 µM, screen: GDSC drug entry 1502

## NCI-H647 (non-small cell lung carcinoma, adherent)
[1]
  AUC: 0.543
  IC50: 0.413 µM
[2]
  AUC: 0.417
  IC50: 0.0374 µM
[3]
  AUC: 0.905
  IC50: > 10.2 µM
[4]
  AUC: 0.976
  IC50: > 20 µM
[5]
  AUC: 0.954
  IC50: > 16 µM
[6]; [9]
  AUC: 0.985
  IC50: > 1.02 µM
[6]; [10]
  AUC: 0.59
  IC50: 1.12 µM
[7]
  AUC: 0.66
  IC50: 3.56 µM
[8]
  AUC: 0.63
  IC50: 0.0371 µM

## NCI-H650 (lung adenocarcinoma, adherent)
[1]
  AUC: 0.617
  IC50: 0.677 µM
[2]
  AUC: 0.669
  IC50: 0.2 µM
[3]
  AUC: 0.986
  IC50: > 10.2 µM
[4]
  AUC: 0.977
  IC50: > 20 µM
[5]
  AUC: 0.984
  IC50: > 16 µM
[6]; [9]
  AUC: 0.986
  IC50: > 1.02 µM
[6]; [10]
  AUC: 0.984
  IC50: > 10 µM
[7]
  AUC: 0.96
  IC50: > 20 µM
[8]
  AUC: 0.541
  IC50: 0.021 µM

## NCI-H661 (large cell lung carcinoma, adherent)
[1]
  AUC: 0.466
  IC50: 0.247 µM
[2]
  AUC: 0.312
  IC50: 0.017 µM
[3]
  AUC: 0.954
  IC50: > 10.2 µM
[4]
  AUC: 0.968
  IC50: > 20 µM
[5]
  AUC: 0.978
  IC50: > 16 µM
[6]; [9]
  AUC: 0.981
  IC50: > 1.02 µM
[6]; [10]
  AUC: 0.963
  IC50: > 10 µM
[7]
  AUC: 0.825
  IC50: 15.6 µM
[8]
  AUC: 0.694
  IC50: 0.0636 µM

## NCI-H727 (lung carcinoid, adherent)
[1]
  AUC: 0.652
  IC50: 1.09 µM
[2]
  AUC: 0.233
  IC50: 0.00618 µM
[3]
  AUC: 0.965
  IC50: > 10.2 µM
[4]
  AUC: 0.973
  IC50: > 20 µM
[5]
  AUC: 0.909
  IC50: > 16 µM
[6]; [9]
  AUC: 0.974
  IC50: > 1.02 µM
[6]; [10]
  AUC: 0.949
  IC50: > 10 µM
[7]
  AUC: 0.93
  IC50: > 20 µM
[8]
  AUC: 0.445

## NCI-H1299 (large cell lung carcinoma, adherent)
[1]
  AUC: 0.514
  IC50: 0.345 µM
[2]
  AUC: 0.156
  IC50: 0.00412 µM
[3]
  AUC: 0.98
  IC50: > 10.2 µM
[4]
  AUC: 0.979
  IC50: > 20 µM
[5]
  AUC: 0.932
  IC50: > 16 µM
[6]; [9]
  AUC: 0.983
  IC50: > 1.02 µM
[6]; [10]
  AUC: 0.9
  IC50: > 10 µM
[7]
  AUC: 0.982
  IC50: > 20 µM
[8]
  AUC: 0.413
  IC50: 0.00875 µM

## NCI-H1563 (lung adenocarcinoma, adherent)
[1]
  AUC: 0.373
  IC50: 0.131 µM
[2]
  AUC: 0.967
  IC50: > 1.02 µM
[3]
  AUC: 0.98
  IC50: > 10.2 µM
[4]
  AUC: 0.979
  IC50: > 20 µM
[5]
  AUC: 0.982
  IC50: > 16 µM
[6]; [9]
  AUC: 0.985
  IC50: > 1.02 µM
[7]
  AUC: 0.958
  IC50: > 20 µM
[8]
  AUC: 0.981
  IC50: > 0.256 µM

## NCI-H1573 (lung adenocarcinoma, adherent)
[1]
  AUC: 0.869
  IC50: 4.38 µM
[2]
  AUC: 0.962
  IC50: > 1.02 µM
[3]
  AUC: 0.982
  IC50: > 10.2 µM
[4]
  AUC: 0.984
  IC50: > 20 µM
[5]
  AUC: 0.991
  IC50: > 16 µM
[6]; [9]
  AUC: 0.991
  IC50: > 1.02 µM
[6]; [10]
  AUC: 0.98
  IC50: > 10 µM
[7]
  AUC: 0.946
  IC50: > 20 µM
[8]
  AUC: 0.895
  IC50: > 0.256 µM

## NCI-H1651 (lung adenocarcinoma, adherent)
[1]
  AUC: 0.635
  IC50: 0.762 µM
[2]
  AUC: 0.373
  IC50: 0.0277 µM
[3]
  AUC: 0.987
  IC50: > 10.2 µM
[4]
  AUC: 0.983
  IC50: > 20 µM
[5]
  AUC: 0.977
  IC50: > 16 µM
[6]; [9]
  AUC: 0.981
  IC50: > 1.02 µM
[6]; [10]
  AUC: 0.969
  IC50: > 10 µM
[7]
  AUC: 0.957
  IC50: > 20 µM
[8]
  AUC: 0.558
  IC50: 0.0233 µM

## NCI-H1703 (lung adenocarcinoma, adherent)
[1]
  AUC: 0.438
  IC50: 0.204 µM
[2]
  AUC: 0.34
  IC50: 0.0207 µM
[3]
  AUC: 0.925
  IC50: > 10.2 µM
[4]
  AUC: 0.981
  IC50: > 20 µM
[5]
  AUC: 0.975
  IC50: > 16 µM
[6]; [9]
  AUC: 0.979
  IC50: > 1.02 µM
[6]; [10]
  AUC: 0.947
  IC50: > 10 µM
[7]
  AUC: 0.866
  IC50: > 20 µM
[8]
  AUC: 0.726
  IC50: 0.0821 µM

## NCI-H1734 (lung adenocarcinoma, adherent)
[1]
  AUC: 0.57
  IC50: 0.495 µM
[2]
  AUC: 0.32
  IC50: 0.019 µM
[3]
  AUC: 0.983
  IC50: > 10.2 µM
[4]
  AUC: 0.984
  IC50: > 20 µM
[5]
  AUC: 0.981
  IC50: > 16 µM
[6]; [9]
  AUC: 0.985
  IC50: > 1.02 µM
[7]
  AUC: 0.984
  IC50: > 20 µM
[8]
  AUC: 0.641
  IC50: 0.0411 µM

## NCI-H1792 (lung adenocarcinoma, adherent)
[1]
  AUC: 0.64
  IC50: 0.729 µM
[2]
  AUC: 0.569
  IC50: 0.0968 µM
[3]
  AUC: 0.967
  IC50: > 10.2 µM
[4]
  AUC: 0.989
  IC50: > 20 µM
[5]
  AUC: 0.975
  IC50: > 16 µM
[6]; [9]
  AUC: 0.99
  IC50: > 1.02 µM
[6]; [10]
  AUC: 0.989
  IC50: > 10 µM
[7]
  AUC: 0.971
  IC50: > 20 µM
[8]
  AUC: 0.627
  IC50: 0.0344 µM

## NCI-H1793 (lung adenocarcinoma, adherent)
[1]
  AUC: 0.723
  IC50: 1.77 µM
[2]
  AUC: 0.686
  IC50: 0.265 µM
[3]
  AUC: 0.98
  IC50: > 10.2 µM
[4]
  AUC: 0.974
  IC50: > 20 µM
[5]
  AUC: 0.961
  IC50: > 16 µM
[6]; [9]
  AUC: 0.982
  IC50: > 1.02 µM
[6]; [10]
  AUC: 0.951
  IC50: > 10 µM
[7]
  AUC: 0.89
  IC50: > 20 µM
[8]
  AUC: 0.925
  IC50: > 0.256 µM

## NCI-H1915 (large cell lung carcinoma, adherent)
[1]
  AUC: 0.399
  IC50: 0.164 µM
[2]
  AUC: 0.923
  IC50: > 1.02 µM
[3]
  AUC: 0.984
  IC50: > 10.2 µM
[4]
  AUC: 0.968
  IC50: > 20 µM
[5]
  AUC: 0.978
  IC50: > 16 µM
[6]; [9]
  AUC: 0.988
  IC50: > 1.02 µM
[6]; [10]
  AUC: 0.986
  IC50: > 10 µM
[7]
  AUC: 0.982
  IC50: > 20 µM
[8]
  AUC: 0.629
  IC50: 0.0366 µM

## NCI-H1944 (lung adenocarcinoma, adherent)
[1]
  AUC: 0.311
  IC50: 0.0888 µM
[2]
  AUC: 0.217
  IC50: 0.00883 µM
[3]
  AUC: 0.916
  IC50: > 10.2 µM
[4]
  AUC: 0.969
  IC50: > 20 µM
[5]
  AUC: 0.972
  IC50: > 16 µM
[6]; [9]
  AUC: 0.985
  IC50: > 1.02 µM
[6]; [10]
  AUC: 0.984
  IC50: > 10 µM
[7]
  AUC: 0.863
  IC50: 19.2 µM
[8]
  AUC: 0.544
  IC50: 0.0212 µM

## NCI-H1993 (lung adenocarcinoma, adherent)
[1]
  AUC: 0.669
  IC50: 1.08 µM
[2]
  AUC: 0.983
  IC50: > 1.02 µM
[3]
  AUC: 0.983
  IC50: > 10.2 µM
[4]
  AUC: 0.969
  IC50: > 20 µM
[5]
  AUC: 0.953
  IC50: > 16 µM
[6]; [9]
  AUC: 0.983
  IC50: > 1.02 µM
[6]; [10]
  AUC: 0.981
  IC50: > 10 µM
[7]
  AUC: 0.982
  IC50: > 20 µM
[8]
  AUC: 0.924
  IC50: > 0.256 µM
